Test results from the RNAGym collection of RNA variant scans (doi:10.1101/gad.245936.114).
This sample is rich in variants without activity.

B1: tRNA (parent)
chain: CUCUCGGUAGCCAAGUUGGUUUAAGGCGCAAGACUUUAAUUUAUCACUACGAAAUCUUGAGAUCGGGCGUUCGACUCGCCCCCGGGAGAUUUUUUCCUCGAGCAA

Variants of: B1
Assay: nonsense suppression (GFP-seq) (ratio to wild type); higher = more function; SUP4oc tRNA, yeast GFP reporter sort-seq
In short: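 Yeast carrying genome-integrated SUP4oc tRNA variants from a library with ~3% random mutations were grown in raffinose/galactose medium with 80 mg/L adenine. Each strain also carried a galactose-driven GFP ochre reporter and RFP. Cells were sorted into GFP/RFP bins, and each bin was Illumina-sequenced (phred ≥30). Nonsense suppression (GFPSEQ) is the bin median GFP/RFP, weighted by each variant's estimated cell share per bin, relative to wild-type SUP4oc; variants needed ≥100 reads and ≥30 cells.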

A23C G32A A74G and A23C G32C U57A C83A cannot be ordered by nonsense suppression: ≤ 0.026 for the first, ≤ 0.026 for the second.

A23C G59C and A23C G59U G61A cannot be ordered by nonsense suppression: ≤ 0.026 for the first, ≤ 0.026 for the second.

A23C G61C and A23C G61U C81U cannot be ordered by nonsense suppression: ≤ 0.026 for the first, ≤ 0.026 for the second.

A23C G66C and A23C G69C cannot be ordered by nonsense suppression: ≤ 0.026 for the first, ≤ 0.026 for the second.

A23C G73A and A23C G73U cannot be ordered by nonsense suppression: ≤ 0.026 for the first, ≤ 0.026 for the second.

A23C G85U and A23C G86A cannot be ordered by nonsense suppression: ≤ 0.026 for the first, ≤ 0.026 for the second.

A23C U35G and A23C U35G C81G cannot be ordered by nonsense suppression: ≤ 0.026 for the first, ≤ 0.026 for the second.

A23C U55A A60G G69U and A23C U55G cannot be ordered by nonsense suppression: ≤ 0.026 for the first, ≤ 0.026 for the second.

A23C U57G and A23C U57G G69C cannot be ordered by nonsense suppression: ≤ 0.026 for the first, ≤ 0.026 for the second.

A23C U58G and A23C U58G C64G cannot be ordered by nonsense suppression: ≤ 0.026 for the first, ≤ 0.026 for the second.

A23C U70C and A23C U70G A89C cannot be ordered by nonsense suppression: ≤ 0.026 for the first, ≤ 0.026 for the second.

A23C U71A G78A and A23C U71G cannot be ordered by nonsense suppression: ≤ 0.026 for the first, ≤ 0.026 for the second.

A23C U76A and A23C U76G C77A G78A cannot be ordered by nonsense suppression: ≤ 0.026 for the first, ≤ 0.026 for the second.

Going from A23G A24C to A23G A24C C34U C72A A89G, the nonsense suppression falls from 0.156 to ≤ 0.026.

A23G A24C C34U C72A A89U and A23G A24G C29U C64U G86C cannot be ordered by nonsense suppression: ≤ 0.026 for the first, ≤ 0.026 for the second.

A23G A24G C64A G69U C79G and A23G A24G G28C A54C C75G cannot be ordered by nonsense suppression: ≤ 0.026 for the first, ≤ 0.026 for the second.

A23G A24U C56A C80A and A23G A24U U57A A60C G85A cannot be ordered by nonsense suppression: ≤ 0.026 for the first, ≤ 0.026 for the second.

A23G A24U U76A and A23G A30C A74G cannot be ordered by nonsense suppression: ≤ 0.026 for the first, ≤ 0.026 for the second.

A23G A30C G73A and A23G A30U U58A U63A G85U cannot be ordered by nonsense suppression: ≤ 0.026 for the first, ≤ 0.026 for the second.

A23G A31C U55A G88U and A23G A31U cannot be ordered by nonsense suppression: ≤ 0.026 for the first, ≤ 0.026 for the second.

Going from A23G A33U G59U G66A to A23G A54U, the nonsense suppression rises from ≤ 0.026 to 0.0263.

A23G A54U U71C C79U and A23G A60C G61U cannot be ordered by nonsense suppression: ≤ 0.026 for the first, ≤ 0.026 for the second.

A23G A62U C68A and A23G A74U G86A cannot be ordered by nonsense suppression: ≤ 0.026 for the first, ≤ 0.026 for the second.

A23G A74U G88C and A23G C27G cannot be ordered by nonsense suppression: ≤ 0.026 for the first, ≤ 0.026 for the second.

First: A23G C29A G61A
Second: A23G C29U
The nonsense suppression of the first is lower: ≤ 0.026 for the first, 0.142 for the second.

A23G C29U A31C C72A and A23G C29U A87G cannot be ordered by nonsense suppression: ≤ 0.026 for the first, ≤ 0.026 for the second.

A23G C29U C79A and A23G C34A G88A cannot be ordered by nonsense suppression: ≤ 0.026 for the first, ≤ 0.026 for the second.

A23G C34G and A23G C34U G61A G88A cannot be ordered by nonsense suppression: ≤ 0.026 for the first, ≤ 0.026 for the second.

A23G C56A C64G A74C and A23G C56G cannot be ordered by nonsense suppression: ≤ 0.026 for the first, ≤ 0.026 for the second.

A23G C64A and A23G C64A G66U G86A cannot be ordered by nonsense suppression: ≤ 0.026 for the first, ≤ 0.026 for the second.

A23G C68U G85U and A23G C72A cannot be ordered by nonsense suppression: ≤ 0.026 for the first, ≤ 0.026 for the second.

A23G C79A G85A and A23G C80A cannot be ordered by nonsense suppression: ≤ 0.026 for the first, ≤ 0.026 for the second.

A23G C83A and A23G G25A U35A cannot be ordered by nonsense suppression: ≤ 0.026 for the first, ≤ 0.026 for the second.

A23G G28A and A23G G59C C64G C77G G78A cannot be ordered by nonsense suppression: ≤ 0.026 for the first, ≤ 0.026 for the second.

A23G G59C G86U and A23G G61A A62C G66U A74C U76G cannot be ordered by nonsense suppression: ≤ 0.026 for the first, ≤ 0.026 for the second.

Compared with A23G G61C, A23G G61C G86U is lower in nonsense suppression: 0.113 for the first, ≤ 0.026 for the second.

A23G G61U U71G and A23G G65C C75G C83A cannot be ordered by nonsense suppression: ≤ 0.026 for the first, ≤ 0.026 for the second.

A23G G65C G86C and A23G G67A cannot be ordered by nonsense suppression: ≤ 0.026 for the first, ≤ 0.026 for the second.

A23G G69A and A23G G84U cannot be ordered by nonsense suppression: ≤ 0.026 for the first, ≤ 0.026 for the second.

A23G G85A and A23G G86A cannot be ordered by nonsense suppression: ≤ 0.026 for the first, ≤ 0.026 for the second.

A23G G86U and A23G U35A C81G cannot be ordered by nonsense suppression: ≤ 0.026 for the first, ≤ 0.026 for the second.

A23G U35C and A23G U35G G59C A87C cannot be ordered by nonsense suppression: ≤ 0.026 for the first, ≤ 0.026 for the second.

A23G U57C and A23G U57C G61A C72U cannot be ordered by nonsense suppression: ≤ 0.026 for the first, ≤ 0.026 for the second.

A23G U57G and A23G U63C G66A C82G cannot be ordered by nonsense suppression: ≤ 0.026 for the first, ≤ 0.026 for the second.

A23G U70C U71A and A23G U76A C77A cannot be ordered by nonsense suppression: ≤ 0.026 for the first, ≤ 0.026 for the second.

A23U A24C G25C C27U U35G C80A and A23U A30G U63A cannot be ordered by nonsense suppression: ≤ 0.026 for the first, ≤ 0.026 for the second.

First: A23U A30U
Second: A23U A31C
The nonsense suppression of the first is higher: 0.0282 for the first, ≤ 0.026 for the second.

A23U A31G and A23U A33C cannot be ordered by nonsense suppression: ≤ 0.026 for the first, ≤ 0.026 for the second.

A23U A54G and A23U A54G A74G cannot be ordered by nonsense suppression: ≤ 0.026 for the first, ≤ 0.026 for the second.

A23U A62G G73U and A23U A74C C82U G84A cannot be ordered by nonsense suppression: ≤ 0.026 for the first, ≤ 0.026 for the second.

A23U C29G A62C and A23U C34U G84A cannot be ordered by nonsense suppression: ≤ 0.026 for the first, ≤ 0.026 for the second.

A23U C34U U35G and A23U C56G U70C cannot be ordered by nonsense suppression: ≤ 0.026 for the first, ≤ 0.026 for the second.

A23U C64A G65C and A23U C64U cannot be ordered by nonsense suppression: ≤ 0.026 for the first, ≤ 0.026 for the second.

A23U C72A G73A U76G and A23U C75A cannot be ordered by nonsense suppression: ≤ 0.026 for the first, ≤ 0.026 for the second.

A23U C75A G84A and A23U C75G cannot be ordered by nonsense suppression: ≤ 0.026 for the first, ≤ 0.026 for the second.

A23U C79U and A23U C80A cannot be ordered by nonsense suppression: ≤ 0.026 for the first, ≤ 0.026 for the second.

A23U C82A and A23U C83A cannot be ordered by nonsense suppression: ≤ 0.026 for the first, ≤ 0.026 for the second.

A23U G25A G32U U70A G73C and A23U G25C G69C cannot be ordered by nonsense suppression: ≤ 0.026 for the first, ≤ 0.026 for the second.

A23U G25U G69C and A23U G26A U35G cannot be ordered by nonsense suppression: ≤ 0.026 for the first, ≤ 0.026 for the second.

A23U G26C and A23U G26U G32C A54U C72A cannot be ordered by nonsense suppression: ≤ 0.026 for the first, ≤ 0.026 for the second.

A23U G28A and A23U G28C A30U A33C U63C cannot be ordered by nonsense suppression: ≤ 0.026 for the first, ≤ 0.026 for the second.

A23U G32C and A23U G32C C81G cannot be ordered by nonsense suppression: ≤ 0.026 for the first, ≤ 0.026 for the second.

A23U G32C G61A and A23U G32C U57C C81A cannot be ordered by nonsense suppression: ≤ 0.026 for the first, ≤ 0.026 for the second.

A23U G59A A74G and A23U G59C A74U cannot be ordered by nonsense suppression: ≤ 0.026 for the first, ≤ 0.026 for the second.

A23U G61A C80U and A23U G61C cannot be ordered by nonsense suppression: ≤ 0.026 for the first, ≤ 0.026 for the second.

A23U G65C G86A G88C and A23U G65U cannot be ordered by nonsense suppression: ≤ 0.026 for the first, ≤ 0.026 for the second.

A23U G66A and A23U G67A cannot be ordered by nonsense suppression: ≤ 0.026 for the first, ≤ 0.026 for the second.

A23U G69A and A23U G73A cannot be ordered by nonsense suppression: ≤ 0.026 for the first, ≤ 0.026 for the second.

A23U G73C and A23U G78C A87G cannot be ordered by nonsense suppression: ≤ 0.026 for the first, ≤ 0.026 for the second.

A23U G84U and A23U G86A cannot be ordered by nonsense suppression: ≤ 0.026 for the first, ≤ 0.026 for the second.

A23U U35A C81A and A23U U35G G61A U63C G73A cannot be ordered by nonsense suppression: ≤ 0.026 for the first, ≤ 0.026 for the second.

A23U U55C A60C G69U G85C and A23U U55G cannot be ordered by nonsense suppression: ≤ 0.026 for the first, ≤ 0.026 for the second.

A23U U57C and A23U U58G G85U cannot be ordered by nonsense suppression: ≤ 0.026 for the first, ≤ 0.026 for the second.

A23U U63A G84U and A23U U63C C77U cannot be ordered by nonsense suppression: ≤ 0.026 for the first, ≤ 0.026 for the second.

First: A24C A30C G66U
Second: A24C A30U
The nonsense suppression of the first is lower: ≤ 0.026 for the first, 0.11 for the second.

A24C A30U C81A and A24C A31U G61C G78C cannot be ordered by nonsense suppression: ≤ 0.026 for the first, ≤ 0.026 for the second.

Compared with A24C A54C U76A, A24C A54G is higher in nonsense suppression: ≤ 0.026 for the first, 0.0609 for the second.

First: A24C A60C U70C U76C
Second: A24C A60G
The nonsense suppression of the first is lower: ≤ 0.026 for the first, 0.258 for the second.

First: A24C A60U
Second: A24C A62G
The nonsense suppression of the first is higher: 1.07 for the first, ≤ 0.026 for the second.

Compared with A24C A62U G67U G73A, A24C A74C is higher in nonsense suppression: ≤ 0.026 for the first, 0.0915 for the second.

First: A24C A89C
Second: A24C C27A A74U G86A
The nonsense suppression of the first is higher: 0.0925 for the first, ≤ 0.026 for the second.

A24C C27A C79A and A24C C27U A31C G59U cannot be ordered by nonsense suppression: ≤ 0.026 for the first, ≤ 0.026 for the second.

A24C C27U U71G and A24C C29A cannot be ordered by nonsense suppression: ≤ 0.026 for the first, ≤ 0.026 for the second.

In the case of A24C C34G C56G C77U, the nonsense suppression is reported as ≤ 0.026.
